The supplement of paper PMC11417369
The list shows a part of the results.

What follows are sequences tested on PfHDP1 homeodomain (GST-tagged) (assay: gcPBM binding intensity (ln(normalized median fluorescence intensity)); higher = stronger DNA binding).
Method in brief: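 DNA-binding domains from P. falciparum, fused to GST and produced in E. coli, were put on an Agilent 4 × 180k double-stranded probe array for 1 h in 1× PBS holding 1% milk, 0.2 mg/ml BSA, 0.5% salmon testes DNA and 0.03% Triton X-100. Probes were primer-extended, 36 bp long and drawn from intergenic genomic regions, with negative controls included. After Alexa488 anti-GST antibody detection and a 488 nm scan, binding intensity was set as the highest Masliner-normalised natural-log median intensity across replicate spots of either probe orientation.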

Point of comparison: “TATATATATATATATGTGCGCATATATTTTTTTGTA [GTGCAC_site9983]”, “gcPBM binding intensity (ln)” value 9.33. Against it:
- TTCAAATATATGTTTTCACACACAAAAGAAATGAAA [CACACA_site8671] — lower, 6.48
- ATATATATATAATATTGTACGAAAAAAAATAAAAAA [XGTACX_site974] — lower, 8.1
- TTTTCTCTAAAAAGGTGTACAACTAATAATGCACTG [XGTACX_site6074] — higher, 10.6
- AAATATAATTAATGATGTACACTTATAGATATTGAT [XGTACX_site8435] — lower, 6.65
- TACTGATATAATATAACCGTTTATGTGTATTTTTTA [XGTACX_negctrl_site81] — lower, 6.51
- TATAATAAAATTTTTACACACTTTAAAAAAAAAAAA [CACACA_site524] — lower, 6.16
- TATTCTCGTTCTCATACACACAAAATATACATACAC [CACACA_site7278] — lower, 7.19
- GGGTTAATATTTACTACACACACTTAAAATATGTAT [CACACA_site47] — lower, 6.86
- ATGTATTTTTAAAAATATAAATTATGTAACTTGTGA [XGTACX_negctrl_site620] — lower, 6.42
- ACATATTTTTACTTTTGTACATATTTTTTAATTTTC [XGTACX_site640] — lower, 6.85
- TTTATATATTTTTATCTTGATAATAATGTTTTAGAA [TGCATGCA_negctrl_site300] — lower, 5.87
- GTATATTACATAAAATGTACATAAAAAGCGGAAAAG [XGTACX_site6905] — lower, 7.39
- ATGGGTTAGGCGTGTACACAATTGTATGGTTTAATA [CACACA_site4812] — lower, 7.12
- AATAAGAAAACAAATGCACACCATTTATATAGATTA [CACACA_site8261] — higher, 9.71
- TATATTAATTATAAGACACACATATAGTAATAGAAA [CACACA_site2056] — lower, 6.67
- TACTATATCATTTATTGTACAATATTTCTTCAGAAA [XGTACX_site1008] — lower, 6.69
- CTTTGCCTTAAAAAGGAACACACATGCTTTTTTTAG [CACACA_site8219] — lower, 6.21
- TATAAAAGACTAAATATTATAGAAATATAAATATAA [TGCATGCA_negctrl_site237] — lower, 6.02
- AATGGGTAAACATACACACACACATCTATATTTATA [CACACA_site7025] — lower, 6.52
- TAACAAGGTTTATATGCATGCAAACATAACCAAAAA [TGCATGCA_site824] — lower, 6.58
- GGTTCATAATATGGTTGTACATAAATATATATATAT [XGTACX_site7583] — lower, 8.63
- GGGAGGATAGTTCACAGTACCCAGGAAATCTACGGA [XGTACX_site2553] — lower, 6.27
- AAACAGATAAATAAAAGTACACATTAAAAGGTAGCA [XGTACX_site4150] — lower, 6.47
- ATATATATGTATAATCGTACAGTTAACGTATTCTTA [XGTACX_site5649] — lower, 6.48
- TAATTAATTTCTTTACGTACATAATTAATATATATA [XGTACX_site7372] — lower, 6.54
- GGATTTTAATGAACACGTACATAAAATTAAATAAAT [XGTACX_site7023] — lower, 6.25
- ATTACAATAAATTCGTGTACATGATACCGCCGCTAC [XGTACX_site8997] — lower, 6.86
- ATCAAATTTTTGTTATGTACACAATCATTTAATAAA [XGTACX_site810] — lower, 6.19
- CACAAATAAATATTCACACATATATGTCTTATATAT [CACACA_site5323] — lower, 6.36
- AAAAAAAAAAAATAGGTGCGTGTTACTTTTGTATGC [GTGCAC_site9524] — lower, 6.73
- TAATTATTATTAAATACACACACATACCTCCATGTT [CACACA_site9134] — lower, 6.7
- TTGCATTGATCAAACATACACACATGGTTAATAAAA [CACACA_site2084] — lower, 6.8
- TATTCTTATATATATACACACACAAAATATCTACAA [CACACA_site8144] — lower, 6.94
- AATAATATACATATATATATTATATTGTAATTTTGT [TGCATGCA_negctrl_site1] — lower, 6.22
- ACTAGACAAAATATAATGCACACTATTATTTTTATT [CACACA_site2726] — higher, 10.6
- TTATATCAAGGGAATGCATGCATATCGTTTTGTATT [TGCATGCA_site327] — lower, 6.6
- TATTTCTCACTGTATGGTACAGATATAAATTTTTAT [XGTACX_site8776] — lower, 6.44
- ACAAAATTTACAAAATGTACAAAATATACAAAATAT [XGTACX_site6465] — lower, 6.34
- TTGTGTTATCCTTTTTTAGATCAACTATTTTTATTC [CACACA_negctrl_site145] — lower, 6.32
- ATAAAGCACACCGACACACACATATTTATATTTATA [CACACA_site6620] — lower, 6.87
- TATAAAATAAAAAATAAATATCTATATATATATATA [TGCATGCA_negctrl_site351] — lower, 9.31
- TAAATACATAGATGTACACACATTACAGATGTACAT [CACACA_site4692] — lower, 6.44
- ATTTATAAAATTAATGCACACATCAGCATTTATAAA [CACACA_site1025] — higher, 10.6
- ATAAGAAATGTAACTTGTACATAAGGATATATATTT [XGTACX_site236] — lower, 6.48
